Reference: the RNAGym collection of RNA variant scans (doi:10.1093/nar/gkz1192)
Read counts are not given, so values of variants with three or more changes are uncertain.

B1: CPEB3 Ribozyme (parent)
chain: UAACAGGGGGCCACAGCAGAAGCGUUCACGUCGCAGCCCCUGUCAGAUUCUGGUGAAUCUGCGAAUUCUGCUGUAUAUCUC

Variants of: B1
Assay: self-cleavage, relative activity (ratio to wild type); higher = more cleavage; in vitro, sequencing
Procedure, shortened: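 After error-prone PCR and barcoding, CPEB3 ribozyme mutant libraries were transcribed with T7 RNA polymerase at 37°C for 5 hours, then given 15 min with DNase I before an EDTA stop, and they cleaved during both steps. Reverse transcription with template switching preceded Illumina sequencing. Relative activity divides a variant's cleaved/total read fraction by the unmutated ribozyme's. At least 5 reads were required per variant, and three batches were averaged.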

Variant | self-cleavage
G8U A15G A35G U48C U54C A56U | 0.17
G8A A20U G52A U67C | 0.06
G8A A15G A20G | 0.3
G8U A35U U49C A65C U67C | 0.07
G9C A20G A21G U41C A64U U76C | 0.07
G8A U25A A47G A77G | 0.07
G9A U25C U49G | 0.03
G8U U72A U78A | 0.05
G8U A21G U58C | 0.06
G8A G33A C38U U43C A56U A64G U76A | 0.08
G9A A21G A47U U60A | 0.05
G8A A13G U76C | 0.36
G8A U25C U31C C62G | 0.05
G8A A18G U41C | 0.09
G8U A13G A18U C38A A45G | 0.2
G9A A18G U41A | 0.17
G8A A13U A20C A21G U41C U43C | 0.07
G9A A45G U54C A64G A65U | 0.14
G9A U26C C59A U60C A75U | 0.07
G7U G33A A35C U54C A64U U69A | 0.04
G8A G10A U58A U60A | 0.18

Variant | self-cleavage
G8A U43A U78G | 0.26
G9C A20U U43C U54C | 0.17
G8A A20G G24U C37U U51G | 0.05
G9A A45G U58C G70A | 0.14
G9A A35G U76A A77G | 0.76
G8A A13U G24C G30A U54C U74C A75G | 0.05
G9A A20U A21G U26C G30C U80C | 0.05
G8A A18U G19U A20U C23A U60A | 0.06
G8U A20G U41C A64G A77G | 0.13
G8A A21G A35G U41A U60A U72G | 0.06
G8A U26C C37G A45G | 0.19
G8A A28G G33U U60C U69C | 0.11
G8U A13U A45G A56C U80C | 0.05
G9A U25A A45G | 0.19
G8A A20G A77U U80C | 0.09
G8A A15G A18G U26A U51A U67G U78C | 0.13
G8U G33A C38A A47G G63A | 0.12
G7U U25C U31C U43A | 0.21
G7U U41C A47U | 0.15
G8A C32G A35G C40A G46U A56G | 0.05
G8A C37U A47G G52U U54C A57C U69G | 0.04

Variant | self-cleavage
G9A A35G U49A | 0.4
G9A U31C A47G U48C A64G | 0.13
G9A C12U C32U A56G | 0.07
G9A C34U U51G C68U U74A | 0.16
G9A A45G U48C U51C | 0.32
G9C A13G C29U A65G | 0.03
G7U G19A A56G | 0.26
G8U A20U A35U U48C C62U | 0.04
G9C A18G G36A U60C | 0.05
G8A G24A U26A A56G | 0.16
G9A U60A U67C | 0.05
G8C U25A U31C A47G U54A A64U G73U | 0.04
G7U U54A A56U A75G | 0.08
G9A U72A A77G | 0.46
G8U U54C U76A | 0.35
G9A A18U G22U U48C U66C | 0.07
G8A A18G A45G | 0.48
G7U U31A A47G A56U | 0.13
G8U A18G A64G G70C | 0.05
G8A A64G U72G | 0.06
G8A G10A U25C U49C U60C U72C U80C | 0.04

Variant | self-cleavage
G8A A18G G30A G55U U60C | 0.05
G9A U41A U67A U74C A75G | 0.03
G9A C11U A18G A65G U67C U72G | 0.06
G9A A35G U41C U66C | 0.24
G8U A35U A57C U72C | 0.07
G8A U25C U43A U78C | 0.09
G8A A45G A56G A65U U72A | 0.09
G9A U49A U72C | 0.07
G9A U60A A64U | 0.05
G9A U54C A56G U66C U78C U80C | 0.04
G8A A13G A18G U60C U66G | 0.06
G9A U67C A77G | 0.29
G7U G10C A18G A35G | 0.11
G8C U25A G52U A56U | 0.05
G8A U43C A45G U66C | 0.08
G8A G10A A56G U66C U80C | 0.04
G8U A13G U43C U80C | 0.03
G9A U58C A75G | 0.14
G9A G19U C40A U41A A77G | 0.13
G9A A15G A21G U51C A57U | 0.05
G8U U26A G36A U48A C62U A64G | 0
